Hit rate of the full screen: of about 410,000 compounds, about 6,400 (1.6%) were called active. The inconclusive results got no clear call from the source; some entries with a clear call stand among them for comparison. The call rests on the fitted dose curve; in most records, active means well fitted inhibition curve with a large enough effect; inconclusive means small, poorly fitted or top-dose-only effect; inactive means no such curve, though single readings can be large or run the other way. Potencies of inconclusive entries are left out as doubtful fits.
What follows are compounds tested against Glucagon-like peptide 1 receptor (Homo sapiens) (UniProt P43220) (assay: qHTS of GLP-1 Receptor Inverse Agonists (Inhibition Mode)). Conditions: HEK293 GLP-1R CRE-luciferase, luminescence, 24 h, GLP-1R form is constitutively active; activity change, negative = inhibition: at 38.3 µM (top of the series) unless noted.
Sequence of UniProt P43220 (P43220 whole entry, looked up): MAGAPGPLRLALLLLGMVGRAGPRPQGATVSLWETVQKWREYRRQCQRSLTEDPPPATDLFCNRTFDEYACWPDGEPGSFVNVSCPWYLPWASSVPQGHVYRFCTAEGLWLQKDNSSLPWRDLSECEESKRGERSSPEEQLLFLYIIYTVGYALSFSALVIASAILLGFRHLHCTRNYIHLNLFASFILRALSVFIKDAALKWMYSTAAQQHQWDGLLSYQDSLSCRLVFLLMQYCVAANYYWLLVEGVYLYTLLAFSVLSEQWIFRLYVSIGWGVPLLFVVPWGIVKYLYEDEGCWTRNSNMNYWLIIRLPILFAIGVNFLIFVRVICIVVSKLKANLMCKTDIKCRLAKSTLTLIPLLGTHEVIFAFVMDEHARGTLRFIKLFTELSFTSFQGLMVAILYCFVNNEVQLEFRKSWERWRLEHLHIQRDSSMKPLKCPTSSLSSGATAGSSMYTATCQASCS
Summary of the method: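 GLP-1R inverse agonism mode: basal reporter luminescence in engineered HEK293 cells measured after one day of compound exposure at 37 deg C, with a 12 min room-temperature detection step.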
With CC1=CC(C)C2(CO)COC(c3ccc(O)cc3)C1C2C (configuration not stated) the Potency was inconclusive [inhibitor, partial curve, poor fit].
With CCCN(CCC)CCNC(=O)CN1C(=O)COc2ccc(S(=O)(=O)N3CCC(C)CC3)cc21 the “activity change, negative = inhibition” value was inactive: 7.86%.
In the case of NC(=NCCc1ccccc1)NC(=O)c1cc(Cl)ccc1O, the Potency is reported as inconclusive [inhibitor, single point].
In the case of c1ccc(CNc2ncnc3sccc23)cc1, the Potency is reported as inconclusive [inhibitor, partial curve].
For Cc1cc(C(=O)OCC(=O)Nc2cc(S(=O)(=O)N3CCOCC3)ccc2Cl)c(C)o1, the Potency was inconclusive [inhibitor, partial curve, poor fit].
O=C(Cc1cccs1)NCc1cc(Cl)cc(Cl)c1 was tested, and the Potency was inconclusive [inhibitor, partial curve, poor fit].
In the case of COc1ccccc1C(O)c1ncc(-c2cccc3ccccc23)[nH]1 (configuration not stated), the Potency is reported as inconclusive [inhibitor, single point].
In the case of Cc1ccc(OCC(=O)NCC2(N3CCOCC3)CCCCC2)cc1C, the Potency is reported as inconclusive [inhibitor, single point].
For COc1cc(C)c(NC(c2ccccc2)c2ccccc2)cc1OC, the Potency was inconclusive [inhibitor, full curve, poor fit].
In the case of COc1cccc(-c2nnc(Nc3nc4c(F)cccc4s3)o2)c1, the Potency is reported as inconclusive [inhibitor, single point].
In the case of CCOc1ccc(NS(=O)(=O)c2ccc(-c3cnc(C4CC4)o3)cc2)cc1, the Potency is reported as inconclusive [inhibitor, partial curve, poor fit].
With CC(=O)Oc1cc2c(cc1Cl)C1(CC(c3ccccc3Cl)O2)CC(C)(C)NC(=S)N1 (configuration not stated) the Potency was inconclusive [inhibitor, partial curve, poor fit].
In the case of CC(=O)Nc1ccc(NC(=O)COC(=O)/C(=C/c2ccccc2)n2nnnc2C)cc1, the “activity change, negative = inhibition” value is reported as inactive: 4.75%.
With O=C(CN1CCCCC1)NC(=O)NC1CCCC1 the “activity change, negative = inhibition” value was inactive: 39.1%.
With COc1ccc(-c2nc3scc(CCNS(=O)(=O)c4ccccc4F)n3n2)cc1 the “activity change, negative = inhibition” value was inactive: 6.67%.
COc1ccc2c(c1OC)C(=O)N(c1ccc(C)cc1)C2 was tested, and the Potency was inconclusive [inhibitor, single point].
In the case of Cc1ccc(-c2csc3ncnc(NCCN4CCOCC4)c23)cc1, the Potency is reported as inconclusive [inhibitor, full curve, poor fit].
For COc1ccc(-c2noc(-c3ccc(N4CCCC4)c([N+](=O)[O-])c3)n2)cc1, the “activity change, negative = inhibition” value was inactive: -8.92%.
For CC(Oc1ccc(F)cc1)C(=O)Nc1nc(-c2ccc(F)cc2)ns1 (configuration not stated), the Potency was inconclusive [inhibitor, single point].
For COc1ccc(C)cc1S(=O)(=O)NCC(c1cccs1)S(=O)(=O)c1ccc(C)cc1 (configuration not stated), the Potency was inconclusive [inhibitor, single point].
In the case of Nc1cc(S(=O)(=O)N2CCOCC2)ccc1Oc1cccc(Br)c1, the Potency is reported as inconclusive [inhibitor, single point].
For CCNS(=O)(=O)c1ccc(Br)c(C(=O)OC(C)C(=O)NCC2CCCCC2)c1 (configuration not stated), the Potency was inconclusive [inhibitor, single point].
For O=C(Nc1cnn(Cc2c(Cl)cccc2Cl)c1)c1ccc([N+](=O)[O-])cc1, the Potency was inconclusive [inhibitor, partial curve, poor fit].
O=C(NCCC(=O)N1CCCCC1)c1ccc(Br)cc1 was tested, and the “activity change, negative = inhibition” value was inactive: 5.43%.
With CC1CN(S(=O)(=O)c2cccc(C(=O)N(CCc3ccccc3)Cc3ccccc3)c2)CC(C)O1 (configuration not stated) the Potency was inconclusive [inhibitor, partial curve, poor fit].
O=C(NCc1ccc(Cl)cc1)c1ccc2ccccc2n1 was tested, and the Potency was inconclusive [inhibitor, single point].
In the case of O=C(CC1SC(=Nc2ccccc2)N(CCCO)C1=O)Nc1ccc(Cl)cc1 (configuration not stated), the Potency is reported as inconclusive [inhibitor, partial curve, poor fit].
Clc1ncccc1-c1nnn(-c2ccccc2Br)n1 was tested, and the Potency was inconclusive [inhibitor, single point].
For COC(=O)[C@@]12C[C@@H](CC(=O)NCc3cccs3)C(=O)N(Cc3ccco3)C1=CCC(C)(C)C2, the Potency was inconclusive [inhibitor, single point].
With Cc1cc(C)c(C(CC(=O)c2cccs2)C(C#N)C#N)c(C)c1 (configuration not stated) the Potency was inconclusive [inhibitor, partial curve, poor fit].
O=C(COc1ccccc1)Nc1ccc(CN2CCCCC2)cc1 was tested, and the Potency was inconclusive [inhibitor, full curve, poor fit].
In the case of CN(C)CCCN1c2ccccc2Sc2ccc(C(F)(F)F)cc21, the Potency is reported as inconclusive [inhibitor, partial curve, poor fit].
In the case of CCOC(=O)Cn1c(=O)n(CC2CCCO2)c2nc(-c3ccccc3F)nc(C(N)=O)c21 (configuration not stated), the “activity change, negative = inhibition” value is reported as inactive: -1.04%.
In the case of CCCCOc1ccc(Cc2cnc(N)nc2N)cc1, the Potency is reported as inconclusive [inhibitor, partial curve, poor fit].
OC1CCC(Nc2ncnc3sccc23)CC1 (configuration not stated) was tested, and the “activity change, negative = inhibition” value was inactive: 6.85%.
With Cc1ccc(NC(=S)NC(=O)CC2CC(C)(C)OC2=O)cc1 (configuration not stated) the “activity change, negative = inhibition” value was inactive: 8.06%.
In the case of COc1ccc(-n2c(C)c(C(C)=O)c3cc(OC(=O)c4ccc(C)cc4)ccc32)cc1, the Potency is reported as inconclusive [inhibitor, partial curve, poor fit].
In the case of Cc1cc2[nH]c3c(c[n+](C)c4ccccc34)c2cc1C, the Potency is reported as inconclusive [inhibitor, single point].
In the case of CCOC(=O)C(CCCOc1ccc(C)cc1)C(=O)OCC, the “activity change, negative = inhibition” value is reported as inactive: -24.4%.
For COC(=O)c1ccc(NC(=O)CCc2c(C)nc3c(-c4ccccc4)c(C)nn3c2C)cc1, the Potency was inconclusive [inhibitor, partial curve, poor fit].
For Cc1ccc(CCNC(=O)c2cn(C)c3ccc(S(=O)(=O)N(C)C4CCCCC4)cc3c2=O)cc1, the “activity change, negative = inhibition” value was inactive: 7.47%.
Cc1cccc(C(=O)O/N=C(\N)c2ccccn2)c1 was tested, and the Potency was active: 2 µM.

From PubChem BioAssay AID624417 (National Center for Advancing Translational Sciences (NCATS), 2012)
Further: nearly all actives have a fitted effect of over 55% in size.
On the % scale 0 is the no-effect control and ±100 the full control effect; potency means the concentration at half of the fitted maximal effect; tags describe the fitted curve by direction and shape.
